# Measured values from PubChem BioAssay AID686978 (National Center for Advancing Translational Sciences (NCATS), 2013).
# Screen size: about 420,000 compounds; about 64,000 (15%) were called active. Inconclusive means that the source gave no clear call. Such entries were picked first, then a sample of the others. Calls come from the whole dose curve; as a rule, active = well fitted inhibition curve with a large enough effect; inconclusive = small, poorly fitted or top-dose-only effect; inactive = flat fitted curve, though single readings scatter. No potency is given beside an inconclusive call; the fits are too rough. Some structures have more than one record in an assay (separate samples or runs), and their calls can disagree.
# Test: qHTS for Inhibitors of human tyrosyl-DNA phosphodiesterase 1 (TDP1): qHTS in cells in absence of CPT; note: nearly all actives have a fitted effect of over 55% in size
# Settings: DT40 Tdp1-/- hTDP1 cells, no CPT, ATP luminescence, 48 h; activity change, negative = growth inhibition: at 46.2 µM (top of the series) unless noted
# In short: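 Seeded 400 DT40-hTDP1 cells/well (vehicle DMSO, no 20 nM CPT); pinned compounds; ≥48 hr at 37 °C; CellTiter-Glo luminescence as viability measure.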
# % is set by controls: 0 for no effect and ±100 for the full control effect; potency is the fitted concentration of half-maximal effect; tags give direction and shape of the fitted curve.
SMILES,Potency,"activity change, negative = growth inhibition"
COc1cccc(C(=O)CC(=O)C(=O)Nc2cc(Cl)c(OC)cc2OC)c1,"inconclusive [inhibitor, single point]",
CC(NC(=O)c1ccc(Br)o1)c1ccccc1 (stereo not drawn),,inconclusive: -31.5% [inhibitor]
COc1ccc(N/C(N)=N/c2nc(CSc3ccc(Cl)cc3)cc(=O)[nH]2)cc1,"inconclusive [inhibitor, partial curve]",
Cc1ccc(NC(=O)C(C)N2CCCc3ccccc32)cc1S(=O)(=O)N1CCOCC1 (stereo not drawn),active: 6.51 µM,
CC(=O)/C(=N/Nc1ccc(Br)cc1)N1CCCc2ccccc21,"inconclusive [inhibitor, single point]",
COc1cccc(NC(=O)N2CCC(n3c(C)nc4cccnc43)CC2)c1,,inactive: 2.63%
CCCCNc1c(-c2ccc(-c3ccc(OC)cc3)c(OC)c2)nc2ccccn12,active: 13 µM,
CC(=O)c1c(COC(=O)c2ccccc2)nc2ccccc2[n+]1[O-],,inactive: -5.54%
COc1cc(C(=O)O/N=C(\N)c2ccncc2)cc(OC)c1OC,"inconclusive [inhibitor, partial curve]",
Cc1cc([N+](=O)[O-])cc(/C=N/n2c(C)nc3ccccc3c2=O)c1O,"inconclusive [inhibitor, single point]",
COc1ccccc1-c1nnc(SC2CCc3ccccc3NC2=O)s1 (stereo not drawn),"inconclusive [inhibitor, single point]",
O=S(=O)(c1ccccc1)N1CCN(S(=O)(=O)c2ccccc2)CC1,,inactive: -1.31%
COc1cccc(OC)c1C(=O)Nc1nnc(C)s1,,inactive: -1.93%
CCc1ccc(NC(=O)C(C)OC(=O)Cc2cc(OC)c(OC)c(OC)c2)cc1 (stereo not drawn),"inconclusive [inhibitor, single point]",
NC(=O)C1CCCN(CC(O)COCc2ccc(Cl)cc2)C1 (stereo not drawn),,inactive: -17.5%
COc1ccc(CNC(=O)C2CCN(Cc3nc(-c4ccc(OC)c(OC)c4)oc3C)CC2)cc1,"inconclusive [inhibitor, single point]",
CCNS(=O)(=O)c1ccc(CCC(=O)N2CCC(C)CC2)cc1,,inactive: 4.39%
S=C(c1ccc(-c2ccccc2Cl)o1)N1CCCCC1,active: 16.4 µM,
Cc1c(NC(=O)c2ccc(Cl)c([N+](=O)[O-])c2)cccc1-n1cnnn1,"inconclusive [inhibitor, single point]",
COc1ccc(F)cc1C(=O)C1CCCN(C(=O)CCc2ccccn2)C1 (stereo not drawn),active: 18.4 µM,
Cc1cc(C(C)(C)C)c(O)c(C(C)(C)C)c1,active: 13 µM,
COc1cc2cc[n+](Cc3ccc([N+](=O)[O-])cc3)cc2cc1OC,"inconclusive [inhibitor, single point]",
Cc1ccc(S(=O)(=O)Nc2ccc(S(=O)(=O)Nc3cc(C)nc(C)n3)cc2)cc1,,inactive: -13.9%
Cc1cc(Nc2ccccc2)n(-c2cccc(Cl)c2)n1,"inconclusive [inhibitor, single point]",

SMILES,Potency,"activity change, negative = growth inhibition"
O=[N+]([O-])c1ncn(Cc2c(Cl)cccc2Cl)n1,"inconclusive [inhibitor, single point]",
COC(=O)c1cccnc1N1CCN(c2ccccc2F)CC1,,inactive: 1%
Nn1c(SCC(=O)Nc2ccc3c(c2)OCCO3)nnc(CCC(=O)O)c1=O,"inconclusive [inhibitor, single point]",
COc1ccccc1NC(=O)NCc1ccco1,"inconclusive [inhibitor, full curve, poor fit]",
CCOc1ccc(N(CC(=O)NCc2ccccc2C)S(C)(=O)=O)cc1,,inactive: -6.19%
O=C(c1ccccc1)c1ccc(C(=O)N2CCN(c3ccccc3)CC2)cc1,"inconclusive [inhibitor, single point]",
c1ccc(C2=Nc3c(ccc4ccccc34)C(c3ccncc3)=NN2)cc1,active: 20.6 µM,
O=C(COC(=O)C(Cc1c[nH]c2ccccc12)NC(=O)c1ccc(Br)cc1)c1ccc(Cl)cc1 (stereo not drawn),"inconclusive [inhibitor, single point]",
O=C(Nc1nc(-c2ccc(S(=O)(=O)N3CCCC3)cc2)cs1)c1ccco1,active: 18.4 µM,
FC(F)(F)c1ccccc1N/N=C/c1cccnc1,"inconclusive [inhibitor, partial curve]",
Cc1ccc2[nH]cc(CCNC(=O)c3cccs3)c2c1,"inconclusive [inhibitor, partial curve]",
O=C(COc1ccc(Cl)cc1)Nc1ccc(CN2CCOCC2)cc1,"inconclusive [inhibitor, single point]",
COc1ccccc1NC(=O)c1cc2c(CO)cnc(C)c2oc1=Nc1ccccc1,active: 8.2 µM,
O=C(CCCC(=O)N/N=C/c1ccccc1C(=O)O)N/N=C/c1ccccc1C(=O)O,,inactive: -19.3%
N#Cc1nc(-c2cccs2)oc1NCCCN1CCOCC1,,inactive: 0.516%
CC(C)Oc1ccc(C(=O)NC2(C(F)(F)F)NC(=O)N(CCCc3ccccc3)C2=O)cc1 (stereo not drawn),"inconclusive [inhibitor, single point]",
N#C/C(=C\c1c(Cl)cccc1Cl)c1nn(-c2ccccc2)c(-n2cccc2)c1C#N,active: 20.6 µM,
CCn1nc(C)c(CN2CCC(C(=O)Nc3cccc(-c4cccc(F)c4)c3)CC2)c1C,"inconclusive [inhibitor, single point]",
Nc1cccc2c1C(=O)N(c1ccccc1)C2=O,,inactive: -0.667%
COc1ccc(NC(=S)N(CCCN2CCOCC2)Cc2ccccn2)cc1,,inactive: -2.23%
O=C(NCCSc1ccccn1)c1ccc(Cl)cc1Cl,"inconclusive [inhibitor, single point]",
CCC(=O)N1CCc2cc(S(=O)(=O)CCC(=O)Nc3ccc(Cl)c(C(F)(F)F)c3)ccc21,active: 8.2 µM,
CCOc1ccccc1NC(=O)COC(=O)/C=C/c1ccc(OC)c(OC)c1,"inconclusive [inhibitor, single point]",
COc1ccccc1NS(=O)(=O)c1ccc(C)c(NS(=O)(=O)c2cc(NC(C)=O)ccc2OC)c1,,inconclusive: -32% [inhibitor]
